The values that follow come from doi:10.1101/2025.02.07.636106.

Experiment [1] concerns the target Eukaryotic translation initiation factor 3 subunit H (UniProt O15372). The experiment in a line: cross-linking mass spectrometry.
For experiment [2], the target named is T1, Golgi apparatus protein 1 (UniProt Q92896).
T1 sequence: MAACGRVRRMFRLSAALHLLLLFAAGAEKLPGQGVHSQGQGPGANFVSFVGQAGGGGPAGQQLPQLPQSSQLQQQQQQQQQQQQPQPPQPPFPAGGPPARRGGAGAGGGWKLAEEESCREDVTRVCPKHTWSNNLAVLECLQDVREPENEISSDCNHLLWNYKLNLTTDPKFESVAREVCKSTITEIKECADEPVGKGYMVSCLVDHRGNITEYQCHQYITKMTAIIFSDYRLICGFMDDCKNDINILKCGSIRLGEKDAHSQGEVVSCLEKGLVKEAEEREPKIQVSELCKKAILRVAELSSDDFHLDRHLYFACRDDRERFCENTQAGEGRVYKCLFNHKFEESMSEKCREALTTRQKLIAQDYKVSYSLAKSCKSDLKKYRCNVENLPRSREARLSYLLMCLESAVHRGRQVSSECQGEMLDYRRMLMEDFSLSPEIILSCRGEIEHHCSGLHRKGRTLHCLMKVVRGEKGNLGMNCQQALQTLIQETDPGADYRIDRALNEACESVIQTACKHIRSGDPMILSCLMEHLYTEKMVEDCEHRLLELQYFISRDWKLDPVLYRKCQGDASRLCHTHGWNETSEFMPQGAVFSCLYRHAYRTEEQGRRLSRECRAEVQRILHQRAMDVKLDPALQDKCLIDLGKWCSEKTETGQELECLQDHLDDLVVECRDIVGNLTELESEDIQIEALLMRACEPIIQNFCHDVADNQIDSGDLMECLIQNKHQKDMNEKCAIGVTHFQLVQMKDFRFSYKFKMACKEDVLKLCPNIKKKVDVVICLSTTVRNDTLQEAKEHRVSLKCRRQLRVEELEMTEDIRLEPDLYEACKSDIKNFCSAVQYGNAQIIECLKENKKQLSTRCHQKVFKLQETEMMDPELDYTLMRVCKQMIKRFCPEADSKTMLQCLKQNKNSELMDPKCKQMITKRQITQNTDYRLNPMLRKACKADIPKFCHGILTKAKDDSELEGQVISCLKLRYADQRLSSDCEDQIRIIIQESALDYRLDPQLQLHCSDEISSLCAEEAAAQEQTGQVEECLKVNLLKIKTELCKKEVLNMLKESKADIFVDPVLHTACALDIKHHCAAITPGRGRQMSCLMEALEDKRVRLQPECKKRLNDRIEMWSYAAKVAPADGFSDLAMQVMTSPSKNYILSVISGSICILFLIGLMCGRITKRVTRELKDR
Description: cross-link between two proteins; cross-linking mass spectrometry.

Experiment [3] concerns the target Kinesin-like protein KIF21A (UniProt Q7Z4S6). The description is as above.
Experiment [4] has as its target T2, Leucine-rich repeat-containing protein 59 (UniProt Q96AG4).
T2 sequence: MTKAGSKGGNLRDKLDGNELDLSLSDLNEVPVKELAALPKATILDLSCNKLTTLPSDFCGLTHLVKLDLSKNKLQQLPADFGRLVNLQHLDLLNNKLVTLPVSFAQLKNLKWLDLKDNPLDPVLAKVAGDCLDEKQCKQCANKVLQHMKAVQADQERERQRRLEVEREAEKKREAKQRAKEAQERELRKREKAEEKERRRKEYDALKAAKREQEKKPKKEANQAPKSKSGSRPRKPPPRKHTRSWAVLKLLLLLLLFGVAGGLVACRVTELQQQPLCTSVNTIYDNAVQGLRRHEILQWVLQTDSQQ
The description is as above.

The target in experiment [5] is Proteasome subunit alpha type-3 (UniProt P25788). The experiment in a line: cross-link between two proteins; co-fractionation; cross-linking mass spectrometry.
Experiment [6] concerns the target T3, T-complex protein 1 subunit gamma (UniProt P49368).
T3 sequence: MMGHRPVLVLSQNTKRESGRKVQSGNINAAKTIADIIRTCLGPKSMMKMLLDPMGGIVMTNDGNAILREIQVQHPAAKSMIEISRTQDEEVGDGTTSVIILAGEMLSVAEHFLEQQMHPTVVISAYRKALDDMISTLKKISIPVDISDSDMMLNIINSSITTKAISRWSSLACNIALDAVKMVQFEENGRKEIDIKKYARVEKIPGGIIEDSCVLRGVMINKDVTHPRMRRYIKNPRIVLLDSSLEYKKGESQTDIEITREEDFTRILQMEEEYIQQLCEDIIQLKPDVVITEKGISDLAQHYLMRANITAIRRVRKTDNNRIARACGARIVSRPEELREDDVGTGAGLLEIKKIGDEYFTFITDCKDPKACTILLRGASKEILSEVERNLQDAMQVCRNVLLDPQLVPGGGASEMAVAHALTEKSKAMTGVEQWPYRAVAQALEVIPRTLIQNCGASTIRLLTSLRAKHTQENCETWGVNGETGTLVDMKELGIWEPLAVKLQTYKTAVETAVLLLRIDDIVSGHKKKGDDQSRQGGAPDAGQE
The description is as above.

In the case of “Eukaryotic translation initiation factor 3 subunit F”, the “listed as a hit” value in experiment [1] is recorded as “yes”.

For Albumin, in experiment [2], the “listed as a hit” value is listed as “yes”.

As to “26S proteasome non-ATPase regulatory subunit 3”, in experiment [3], the “listed as a hit” value is “yes”.

Consider “Eukaryotic translation initiation factor 3 subunit A”, for which the “listed as a hit” value in experiment [4] is “yes”.

On to “ATP synthase F(1) complex subunit beta, mitochondrial”, for which, in experiment [5], the “listed as a hit” value is “yes”.

Consider T-complex protein 1 subunit epsilon, for which the “listed as a hit” value in experiment [6] is on record as “yes”.
